Data taken from the supplement of paper PMC10724272.
MIC of invasive clinical C. tropicalis isolates, CLSI broth microdilution (fluconazole 0.12-256 mg/L, up to 1,024 for the azole-resistant cluster and its neighbour group; other ranges not stated); higher = less susceptible. Call: susceptible or wild type [S] / resistant or non-wild type [R] by CLSI breakpoints or cut-offs; intermediate and dose-dependent carry no call. '<=' and '>=' at the end values are inferred; the source marks only some of them. Isolates are numbered anew.

Tests used:
Experiment in all cases: CLSI broth microdilution.
amphotericin B = compound: C[C@@H]1[C@H](O)[C@@H](C)/C=C/C=C/C=C/C=C/C=C/C=C/C=C/[C@H](O[C@@H]2O[C@H](C)[C@@H](O)[C@H](N)[C@@H]2O)C[C@@H]2O[C@](O)(C[C@@H](O)C[C@@H](O)[C@H](O)CC[C@@H](O)C[C@@H](O)CC(=O)O[C@H]1C)C[C@H](O)[C@H]2C(=O)O [amphotericin B]
fluconazole = compound: OC(Cn1cncn1)(Cn1cncn1)c1ccc(F)cc1F [fluconazole]
itraconazole = compound: CCC(C)n1ncn(-c2ccc(N3CCN(c4ccc(OCC5COC(Cn6cncn6)(c6ccc(Cl)cc6Cl)O5)cc4)CC3)cc2)c1=O [itraconazole]
caspofungin = compound: CC[C@H](C)C[C@H](C)CCCCCCCCC(=O)N[C@H]1C[C@@H](O)[C@@H](NCCN)NC(=O)[C@@H]2[C@@H](O)CCN2C(=O)[C@H]([C@H](O)CCN)NC(=O)[C@H]([C@H](O)[C@@H](O)c2ccc(O)cc2)NC(=O)[C@@H]2C[C@@H](O)CN2C(=O)[C@H]([C@@H](C)O)NC1=O [caspofungin]
anidulafungin = compound: CCCCCOc1ccc(-c2ccc(-c3ccc(C(=O)N[C@H]4C[C@@H](O)[C@@H](O)NC(=O)[C@@H]5[C@@H](O)[C@@H](C)CN5C(=O)[C@H]([C@@H](C)O)NC(=O)[C@H]([C@H](O)[C@@H](O)c5ccc(O)cc5)NC(=O)[C@@H]5C[C@@H](O)CN5C(=O)[C@H]([C@@H](C)O)NC4=O)cc3)cc2)cc1 [anidulafungin]
micafungin = compound: CCCCCOc1ccc(-c2cc(-c3ccc(C(=O)N[C@H]4C[C@@H](O)[C@@H](O)NC(=O)[C@@H]5[C@@H](O)[C@@H](C)CN5C(=O)[C@H]([C@H](O)CC(N)=O)NC(=O)[C@H]([C@H](O)[C@@H](O)c5ccc(O)c(OS(=O)(=O)O)c5)NC(=O)[C@@H]5C[C@@H](O)CN5C(=O)[C@H]([C@@H](C)O)NC4=O)cc3)no2)cc1 [micafungin]
flucytosine = compound: Nc1[nH]c(=O)ncc1F [flucytosine]
posaconazole = compound: CC[C@@H]([C@H](C)O)n1ncn(-c2ccc(N3CCN(c4ccc(OC[C@@H]5CO[C@@](Cn6cncn6)(c6ccc(F)cc6F)C5)cc4)CC3)cc2)c1=O [posaconazole]
voriconazole = compound: C[C@@H](c1ncncc1F)[C@](O)(Cn1cncn1)c1ccc(F)cc1F [voriconazole]

| Test System | MIC (amphotericin B) | MIC (fluconazole) | MIC (itraconazole) | MIC (caspofungin) | MIC (anidulafungin) | MIC (micafungin) | MIC (flucytosine) | MIC (posaconazole) | MIC (voriconazole) |
| --- | --- | --- | --- | --- | --- | --- | --- | --- | --- |
| Candida tropicalis isolate 279 (ERG11 copies: 8, Erg11p: Y132F, S154F (heterozygous)) | 1 mg/L [S] | 512 mg/L [R] | 0.5 mg/L [S] | 0.03 mg/L [S] | 0.03 mg/L [S] | 0.03 mg/L [S] | ≤ 0.06 mg/L [S] | 0.5 mg/L [R] | ≥ 8 mg/L [R] |
| Candida tropicalis isolate 280 (ERG11 copies: 2, Erg11p: no key change) | 1 mg/L [S] | 1 mg/L [S] | 0.12 mg/L [S] | 0.03 mg/L [S] | 0.03 mg/L [S] | 0.015 mg/L [S] | ≤ 0.06 mg/L [S] | 0.12 mg/L [S] | 0.06 mg/L [S] |
| Candida tropicalis isolate 281 (ERG11 copies: 2, Erg11p: no key change) | 1 mg/L [S] | 1 mg/L [S] | 0.25 mg/L [S] | 0.06 mg/L [S] | 0.12 mg/L [S] | 0.03 mg/L [S] | ≤ 0.06 mg/L [S] | 0.25 mg/L [S] | 0.12 mg/L [S] |
| Candida tropicalis isolate 282 (ERG11 copies: 2, Erg11p: no key change) | 1 mg/L [S] | 2 mg/L [S] | 0.12 mg/L [S] | 0.03 mg/L [S] | 0.12 mg/L [S] | 0.03 mg/L [S] | ≤ 0.06 mg/L [S] | 0.12 mg/L [S] | 0.06 mg/L [S] |
| Candida tropicalis isolate 283 (ERG11 copies: 2, Erg11p: no key change) | 1 mg/L [S] | 2 mg/L [S] | 0.12 mg/L [S] | 0.03 mg/L [S] | 0.12 mg/L [S] | 0.03 mg/L [S] | ≤ 0.06 mg/L [S] | 0.25 mg/L [S] | 0.12 mg/L [S] |
| Candida tropicalis isolate 284 (ERG11 copies: 6, Erg11p: Y132F, S154F (heterozygous)) | 1 mg/L [S] | 256 mg/L [R] | 1 mg/L [R] | 0.015 mg/L [S] | ≤ 0.015 mg/L [S] | 0.015 mg/L [S] | ≤ 0.06 mg/L [S] | 1 mg/L [R] | ≥ 8 mg/L [R] |
| Candida tropicalis isolate 285 (ERG11 copies: 2, Erg11p: no key change) | 0.5 mg/L [S] | 2 mg/L [S] | 0.25 mg/L [S] | 0.03 mg/L [S] | 0.03 mg/L [S] | 0.03 mg/L [S] | ≤ 0.06 mg/L [S] | 0.25 mg/L [S] | 0.25 µg/mL |
| Candida tropicalis isolate 286 (ERG11 copies: 2, Erg11p: no key change) | 1 mg/L [S] | 2 mg/L [S] | 0.25 mg/L [S] | 0.03 mg/L [S] | 0.03 mg/L [S] | 0.03 mg/L [S] | ≤ 0.06 mg/L [S] | 0.12 mg/L [S] | 0.06 mg/L [S] |
| Candida tropicalis isolate 287 (ERG11 copies: 2, Erg11p: no key change) | 1 mg/L [S] | 1 mg/L [S] | 0.25 mg/L [S] | 0.03 mg/L [S] | 0.12 mg/L [S] | 0.06 mg/L [S] | 0.5 mg/L [S] | 0.25 mg/L [S] | 0.12 mg/L [S] |
| Candida tropicalis isolate 288 (ERG11 copies: 2, Erg11p: no key change) | 1 mg/L [S] | 1 mg/L [S] | 0.25 mg/L [S] | 0.03 mg/L [S] | 0.03 mg/L [S] | 0.03 mg/L [S] | 0.12 mg/L [S] | 0.25 mg/L [S] | 0.12 mg/L [S] |
| Candida tropicalis isolate 289 (ERG11 copies: 2, Erg11p: no key change) | 0.25 mg/L [S] | 2 mg/L [S] | 0.25 mg/L [S] | 0.06 mg/L [S] | 0.12 mg/L [S] | 0.03 mg/L [S] | ≤ 0.06 mg/L [S] | 0.25 mg/L [S] | 0.25 µg/mL |
| Candida tropicalis isolate 290 (ERG11 copies: 2, Erg11p: no key change) | 1 mg/L [S] | 2 mg/L [S] | 0.5 mg/L [S] | 0.03 mg/L [S] | 0.03 mg/L [S] | 0.03 mg/L [S] | ≤ 0.06 mg/L [S] | 0.5 mg/L [R] | 0.5 µg/mL |
| Candida tropicalis isolate 291 (ERG11 copies: 2, Erg11p: no key change) | 1 mg/L [S] | 0.25 mg/L [S] | 0.06 mg/L [S] | 0.03 mg/L [S] | ≤ 0.015 mg/L [S] | 0.03 mg/L [S] | ≤ 0.06 mg/L [S] | 0.03 mg/L [S] | 0.015 mg/L [S] |
| Candida tropicalis isolate 292 (ERG11 copies: 2, Erg11p: no key change) | 1 mg/L [S] | 1 mg/L [S] | 0.06 mg/L [S] | 0.03 mg/L [S] | 0.12 mg/L [S] | 0.03 mg/L [S] | ≤ 0.06 mg/L [S] | 0.06 mg/L [S] | 0.03 mg/L [S] |
| Candida tropicalis isolate 293 (ERG11 copies: 2, Erg11p: no key change) | 0.5 mg/L [S] | 2 mg/L [S] | 0.25 mg/L [S] | 0.12 mg/L [S] | 0.12 mg/L [S] | 0.06 mg/L [S] | ≤ 0.06 mg/L [S] | 0.12 mg/L [S] | 0.12 mg/L [S] |
| Candida tropicalis isolate 294 (ERG11 copies: 2, Erg11p: no key change) | 0.5 mg/L [S] | 1 mg/L [S] | 0.25 mg/L [S] | 0.03 mg/L [S] | 0.12 mg/L [S] | 0.03 mg/L [S] | 0.25 mg/L [S] | 0.25 mg/L [S] | 0.12 mg/L [S] |
| Candida tropicalis isolate 295 (ERG11 copies: 2, Erg11p: no key change) | 2 mg/L [S] | 1 mg/L [S] | 0.25 mg/L [S] | 0.03 mg/L [S] | 0.03 mg/L [S] | 0.03 mg/L [S] | ≤ 0.06 mg/L [S] | 0.25 mg/L [S] | 0.12 mg/L [S] |
| Candida tropicalis isolate 296 (ERG11 copies: 2, Erg11p: no key change) | 0.5 mg/L [S] | 2 mg/L [S] | 0.25 mg/L [S] | 0.03 mg/L [S] | 0.12 mg/L [S] | 0.03 mg/L [S] | 0.12 mg/L [S] | 0.25 mg/L [S] | 0.12 mg/L [S] |
